{"source": "the supplement of paper PMC4604168 (melanoma cell lines)", "note": "The list shows a part of the results. Many values rest on one well or one pass, so single values are uncertain.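 Also: cell number obtained by counting DAPI-stained nuclei in high-throughput microscope images with image analysis software, screen run in 1,536-well plates.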", "data": [{"tested_on": "WM1745", "test": "cell count relative to DMSO control; melanoma cells; higher = more viable cells", "details": "library dose: low library concentration; 72 h", "units": {"cell count": "%"}, "values": [{"smiles": "NC(=O)Nc1cc(-c2cccc(F)c2)sc1C(=O)N[C@H]1CCCNC1", "note": "+ CC(C)CCN1c2nc(Nc3cc(F)c(O)c(F)c3)ncc2N(C)C(=O)C1C [BID1870] (first compound 0.02 µM, partner dose 0.2 µM)", "cell count": 94}, {"smiles": "CN(C)S(=O)(=O)c1ccc2c(c1)/C(=C/c1cc3c([nH]1)CCCC3)C(=O)N2", "note": "+ O=C(O)c1ccc(-c2c[nH]c3ncc(-c4ccccc4)cc23)cc1C1CCCC1 [GSK650394] (first compound 0.4 µM, partner dose 0.16 µM)", "cell count": 101}, {"smiles": "Cc1nc(Nc2ncc(C(=O)Nc3c(C)cccc3Cl)s2)cc(N2CCN(CCO)CC2)n1", "note": "[dasatanib] + O=C(Nc1cccc(Cl)c1)Nc1ncc(CCNc2ncnc3ccsc23)s1 [SNS314] (first compound 0.004 µM, partner dose 0.0008 µM)", "cell count": 61.1}, {"smiles": "CN(C)S(=O)(=O)c1ccc2c(c1)/C(=C/c1cc3c([nH]1)CCCC3)C(=O)N2", "note": "+ COc1cc2ncnc(Nc3ccc(Oc4ccccc4)cc3)c2cc1OC [SrcI1] (first compound 0.4 µM, partner dose 2 µM)", "cell count": 89.4}, {"smiles": "C=CCn1c(=O)c2cnc(Nc3ccc(N4CCN(C)CC4)cc3)nc2n1-c1cccc(C(C)(C)O)n1", "note": "+ N#Cc1c(O)c2c(-c3ccc(-c4ccccc4O)cc3)csc2[nH]c1=O [A769662] (first compound 0.02 µM, partner dose 2 µM)", "cell count": 89}, {"smiles": "CN(C)S(=O)(=O)c1ccc2c(c1)/C(=C/c1cc3c([nH]1)CCCC3)C(=O)N2", "note": "+ Cn1cc(/C=C2\\C(=O)Nc3cccnc32)c2ccccc21 [GW441756] (first compound 0.4 µM, partner dose 0.4 µM)", "cell count": 108}]}]}
